The full ranking holds about 110,000 compounds; the median of “z-score” is about -0.1, and the highest 2% start at about 2. The list shows a part of the results. Calls of active or inactive are those of the source.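 The calls were made as follows: active = z-score in the third read window above 3 or below -3; inactive = the rest.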
What follows are molecules tested against Metabotropic glutamate receptor 8 (Rattus norvegicus) (UniProt P70579) (assay: rat mGluR8 modulators via GIRK flux, primary screen, cell-based, thallium flux, HTS (AID 488969)). Conditions: HEK293 rat mGluR8, GIRK (G protein-gated inwardly rectifying potassium channel) thallium flux, FluoZin2; at 10 µM; stronger effect = higher value; submaximal glutamate (EC20) added with thallium.
Sequence of UniProt P70579 (P70579 whole entry, looked up): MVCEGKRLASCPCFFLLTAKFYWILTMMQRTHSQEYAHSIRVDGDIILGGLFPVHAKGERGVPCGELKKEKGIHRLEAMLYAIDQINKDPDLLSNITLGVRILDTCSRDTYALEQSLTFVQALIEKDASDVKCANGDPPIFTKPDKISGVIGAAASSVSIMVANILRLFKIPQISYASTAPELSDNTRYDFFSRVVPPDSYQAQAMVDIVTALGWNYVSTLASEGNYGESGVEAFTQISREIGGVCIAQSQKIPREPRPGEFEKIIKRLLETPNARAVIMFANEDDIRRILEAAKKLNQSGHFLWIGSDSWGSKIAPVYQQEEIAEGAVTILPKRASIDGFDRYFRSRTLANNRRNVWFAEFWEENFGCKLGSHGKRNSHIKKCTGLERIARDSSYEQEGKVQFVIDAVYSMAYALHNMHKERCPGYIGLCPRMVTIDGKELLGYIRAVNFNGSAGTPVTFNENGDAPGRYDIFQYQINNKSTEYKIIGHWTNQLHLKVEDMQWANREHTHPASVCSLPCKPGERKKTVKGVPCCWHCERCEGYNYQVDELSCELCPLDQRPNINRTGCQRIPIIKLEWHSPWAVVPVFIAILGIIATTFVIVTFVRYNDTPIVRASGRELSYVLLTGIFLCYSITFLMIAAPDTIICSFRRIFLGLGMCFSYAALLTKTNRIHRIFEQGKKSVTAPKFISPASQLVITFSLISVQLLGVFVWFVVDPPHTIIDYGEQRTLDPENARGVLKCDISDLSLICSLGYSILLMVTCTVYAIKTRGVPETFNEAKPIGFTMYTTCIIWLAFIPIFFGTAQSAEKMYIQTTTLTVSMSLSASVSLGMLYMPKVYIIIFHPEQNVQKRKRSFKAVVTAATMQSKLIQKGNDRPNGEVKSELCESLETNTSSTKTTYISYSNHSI

| Structure (SMILES) | z-score |
| --- | --- |
| CNc1nc(Oc2ccccc2C(=O)OC)nc(SC)n1 | 0.171 |
| CC1=C(C(=O)OCc2ccccc2)C(c2ccc(N(C)C)cc2)NC(=O)N1 (stereo not given) | -1.51 |
| CCOc1ccc(NC(=O)N2CC=C(n3c(=O)[nH]c4ccccc43)CC2)cc1 | 0.0976 |
| CCn1c(=O)c2cc(C(=O)NCCN3CCOCC3)sc2c2ccccc21 | -0.398 |
| CCn1cc([N+](=O)[O-])c(C(=O)Nc2ccc(Cn3nc(C)cc3C)cc2)n1 | -0.116 |
| CC(C)=C1C(=O)NN(c2ccc(F)c(Cl)c2)C1=O | -0.33 |
| Cc1oc2c(C)c(O)ccc2c(=O)c1-c1cnn(-c2ccccc2)c1 | 0.0462 |
| O=C(O)CCCCCNC(=O)CCn1cnc2ccccc2c1=O | 0.161 |
| O=C(CSc1nc(-c2ccc(Cl)cc2)cs1)Nc1cccc([N+](=O)[O-])c1 | -0.147 |
| COc1ccc(S(=O)(=O)n2nc(-c3ccc(Cl)cc3)cc2N)cc1OC | -0.0966 |
| O=S(=O)(c1ccc(F)cc1)N1CCN(c2ccccc2)CC1 | -0.635 |
| COC(=O)/C=C1/N/C(=N\c2nc(C)cc(C)n2)N(c2ccccc2)C1=O | -0.333 |
| Cc1ccc(S(=O)(=O)Nc2cc(C(F)(F)F)ccc2N2CCOCC2)c(C)c1 | -0.0267 |
| COC(=O)c1ccc(NC(=O)CSc2nnc(-c3ccccc3)n2C)cc1 | -0.0995 |
| COc1ccc(C(C)NC(=O)c2ccccc2Cl)cc1OC (stereo not given) | -0.409 |
| O=C(N1CCN(c2cccc(Cl)c2)CC1)C1(S(=O)(=O)c2ccc(Cl)cc2)CC1 | 0.0467 |
| CCCOc1ccc(Br)cc1CSC(=N)N | 1.51 |
| O=C(CCN1C(=O)c2ccccc2C1=O)Nc1nc2ccccc2s1 | -0.405 |
| CC1CCN(CC(=O)N2CCCc3c2c(=O)oc2ccc(OCc4ccccc4)cc32)CC1 | 0.947 |
| O=S1(=O)C=CC(Nc2cccc(Cl)c2)C1 (stereo not given) | 0.506 |
| O=C(CN1CCOCC1)Nc1ccccc1Sc1ccc(Cl)cc1 | -0.195 |
| Cc1ccc(C(=O)N/C(=C/c2ccc(-c3cccc([N+](=O)[O-])c3)o2)C(=O)NC(C)(C)C)cc1 | -0.296 |

| Structure (SMILES) | z-score |
| --- | --- |
| C/C(CC(=O)Nc1ccc(OCc2ccccc2)cc1)=N\NC(=O)C(=O)Nc1ccc(C)c(Cl)c1 | -0.132 |
| CCOC(=O)C1[C@H]2C(=O)N(CCCOC)C[C@]23C=C[C@H]1O3 (stereo not given in full) | -0.0146 |
| Nc1sccc1C(=O)c1ccc(Cl)cc1 | -0.434 |
| Cc1nc2ncnn2c(N2CCN(C(=O)c3cccc(F)c3)CC2)c1C | 0.262 |
| Cc1cccc(NC(=O)c2cc(NC(=O)C3CCCCC3C(=O)O)ccc2Cl)n1 (stereo not given) | -0.0619 |
| Cc1ccc(SCC(=O)Nc2ccc(-c3nnc(-c4ccco4)o3)cc2)cc1 | 0.165 |
| Cc1ccc(-n2nc3cc(C)c(N)cc3n2)cc1 | 0.00677 |
| Fc1ccc(C(c2nnnn2C2CCCC2)N2CCN(Cc3ccncc3)CC2)cc1 (stereo not given) | -0.208 |
| Cc1cc2n(n1)SC(Nc1cccc3ccccc13)N2 (stereo not given) | -0.209 |
| COC(=O)c1ccccc1NC(=O)c1ccc(COc2ccccc2)o1 | -0.151 |
| CC(/C=N/Nc1nnc2c(n1)[nH]c1ccccc12)=C\c1ccco1 | -0.207 |
| CC(C)NC(=O)C(=O)N/N=C/c1ccco1 | -0.0707 |
| CCN(CC)c1ccc(NC(=O)COc2ccccc2C)cc1S(=O)(=O)Nc1ccccc1OC | 0.543 |
| CCOc1ccc(C(=O)NC2CCN(C(=O)NCc3ccccc3)CC2)cc1 | -0.171 |
| CCCc1nc2ccccc2c(=O)n1N | -0.257 |
| CN(C)S(=O)(=O)N(CC(=O)Nc1ccc(F)c(F)c1)c1ccccc1 | -0.415 |
| CC1(C)NC(=O)N(CC(O)CNC23CC4CC(CC(C4)C2)C3)C1=O (stereo not given) | 0.426 |
| O=c1[nH]cnc2sc3c(c12)CCN(Cc1ccccc1)C3 | 0.233 |
| CCCCCSc1nc2c(c(=O)[nH]c(=O)n2C)n1CC | -0.511 |
| Cc1nc(SCC(=O)NCC(F)(F)F)c2c(-c3cccs3)csc2n1 | 0.183 |
| O=C(NC(=S)Nc1ccccc1N1CCCC1)c1ccc([N+](=O)[O-])cc1 | active: 14.4 |
| CCCCn1c(-c2csc3ccccc23)n[nH]c1=S | 2.3 |

| Structure (SMILES) | z-score |
| --- | --- |
| N#C/C(=N\Nc1ccccc1Cl)C(=O)c1ccccc1 | -1.27 |
| CCc1ccc(C(C)NC(=O)/C(C#N)=C\c2cn[nH]c2-c2ccccc2)cc1 (stereo not given) | -0.736 |
| Cc1ccc(S(=O)(=O)N(C)C)cc1NC(=O)c1cncc(Br)c1 | 0.0137 |
| O=C(CNC(=O)c1ccc2c(c1)OCO2)N/N=C(Br)/C=C/c1ccccc1 | -0.492 |
| COc1ccccc1OCC(=O)Nc1ccc(C(N)=O)cc1 | -0.194 |
| CCCN(CCC)CCCNC(=O)C1c2cc(OC)c(OC)cc2C(=O)N(C)C1c1cccs1 (stereo not given) | -0.232 |
| C=CCONC(=O)c1cc(OCC(F)(F)F)ccc1OCC(F)(F)F | -0.0898 |
| CC1(c2cccc([N+](=O)[O-])c2)CC(C)(C)N(C(=O)c2ccccc2)c2ccccc21 (stereo not given) | 0.0506 |
| Cc1nn(-c2ccccc2)c(Cl)c1C(=O)NCC(=O)O | -0.0811 |
| c1ccc(-c2nnc(-c3ccccc3)o2)cc1 | 0.0752 |
| Cn1c(Sc2ccc(Cl)cc2)c(C=O)c2ccccc21 | -0.38 |
| CCOC(=O)CNC(=O)CSc1nnnn1-c1ccc(C)c(C)c1 | -0.858 |
| COc1ccc(N/C(=N\c2nc(C)cc(C)n2)NC(C)=O)cc1OC | 0.0664 |
| CC(C)Cn1c(SC(C)C(=O)Nc2ccc3c(c2)OCCO3)nc2ccccc2c1=O (stereo not given) | 0.193 |
| CCN(CC)S(=O)(=O)c1cc(F)ccc1OC | 0.00236 |
| CC(C)CC(=O)Nc1ccc(C(=O)NNC(=O)C(c2ccccc2)c2ccccc2)cc1 | -0.258 |
| Cc1c(Cc2ccccc2)c(=O)oc2cc(OC(=O)c3ccccc3)ccc12 | -0.135 |
| Cc1cccc(CN2CCN(CC(=O)NCc3cccs3)C2=O)c1 | 0.281 |
| c1ccc(Nc2cc(-c3ccccc3)nc3ncnn23)cc1 | 0.00169 |
| O=C(CCC1CCCCC1)NCc1cccs1 | -0.322 |
| COc1ccccc1NC(=S)NCCSc1ccc(Cl)cc1 | 0.711 |
| CCC(=O)Nc1nnc(-c2ccco2)o1 | 2.14 |

| Structure (SMILES) | z-score |
| --- | --- |
| O=c1ccc2cc(S(=O)(=O)N3CCN(c4cc(Cl)ccc4Cl)CC3)ccc2o1 | 0.116 |
| CCc1ccccc1NC(=S)N(CCCN1CCOCC1)Cc1ccccn1 | -0.307 |
| CCc1nnc(NC(=O)CSc2nnc(C)n2-c2ccc(C)cc2)s1 | 0.368 |
| COc1ccc2nc(NC(=O)C3=NN(c4ccccc4)C(=O)CC3)sc2c1 | -0.434 |
| O=C(OC1CCOC1=O)c1cncc(Br)c1 (stereo not given) | -0.105 |
| C/C(=N/NC(=O)C1COc2ccccc2O1)c1ccco1 (stereo not given) | -0.0484 |
| COc1cccc(C2C3(C#N)C(N)=NC(OC)(OC)C23C#N)c1 (stereo not given) | 1.02 |
| COC(=O)c1cccc(NC(=O)CN2CCN(c3ccc(OC)cc3)CC2)c1 | -0.368 |
| NC(=NC1CCCCC1)c1ccc([N+](=O)[O-])cc1 | 0.992 |
| Cc1ccccc1N1C(=O)CC(N2CCC(C(N)=O)CC2)C1=O (stereo not given) | 1.02 |
| N/C(=N/O)c1nc(N2CCCCC2)nc(N2CCCCC2)n1 | -0.109 |
| CC(C)c1ccc(-c2c(C#N)c(N)nc(SCC(=O)N3CCCCC3)c2C#N)cc1 | -0.019 |
| COc1ccccc1CNC(=O)CN1CCN(Cc2ccc(Cl)cc2)C1=O | -0.0941 |
| COc1cc(-c2cc(N)n(S(=O)(=O)c3ccccc3)n2)cc(OC)c1OC | -0.36 |
| CC(=O)Nc1ccc(OC(=O)c2cc([N+](=O)[O-])ccc2Cl)cc1 | -0.251 |
| Cc1ccc(C)c(C(=O)COC(=O)c2ccccc2N2C(=O)C3C4CCC(C4)C3C2=O)c1 (stereo not given) | -0.0577 |
| CC(O)Cn1c(=O)c2c(nc(Br)n2Cc2ccccc2)n(C)c1=O (stereo not given) | -0.215 |
| CC(C)CNC(=S)N1CCN(C)CC1 | -0.258 |
| COc1ccc(NC(=O)CN(C)S(=O)(=O)c2ccc(Cl)cc2)c([N+](=O)[O-])c1 | -0.00271 |
| CC(C)NS(=O)(=O)c1ccc(CCC(=O)N2CCOCC2)cc1 | 0.356 |
| Cc1ccc(/C=C(\C#N)C(=O)Nc2cccc3ncccc23)o1 | -0.0932 |
| C=CCNc1ncnc2c1[nH]c1ccccc12 | 1.42 |

| Structure (SMILES) | z-score |
| --- | --- |
| c1ccc(Oc2nc3ccccc3n3cccc23)cc1 | 0.019 |
| Cc1ccc(CN(C(=O)c2ccco2)C(C(=O)NC2CCCC2)c2ccc(N3CCOCC3)cc2)cc1 (stereo not given) | 0.124 |
| Cc1ccccc1OCCCC(=O)Nc1ccccc1C(F)(F)F | -0.0847 |
| Cc1cccc(C)c1NC(=O)COC(=O)c1c2c(nc3ccccc13)/C(=C\c1ccc3c(c1)OCO3)CCC2 | -0.139 |
| CC1=CC(=O)C(C(C)C)=C/C1=N\OC(=O)c1cccc2nc(C)oc12 | -0.343 |
| Cc1ccccc1NC(=O)c1sc(NC(=O)COc2ccccc2)c(C#N)c1C | -0.306 |
| COc1nccnc1NS(=O)(=O)c1ccc(N=Cc2c(C)[nH]n(-c3ccc(Cl)cc3)c2=O)cc1 | -0.564 |
| Cc1[nH]c2ccccc2c1/C=N/n1cnnc1 | 0.647 |
| COc1ccc2cc3cc(C(=O)NCc4cccs4)oc3nc2c1 | -0.312 |
| CCCS(=O)(=O)N1CCCC(C(=O)NCCN2CCCCC2C)C1 (stereo not given) | -0.0419 |
| Cc1cccc(OCC(=O)Nc2cccc(O)c2)c1 | 0.13 |
| Cc1ccc(C(=O)CN(C(=O)c2ccc(Cl)cc2)N2C(=O)c3ccccc3C2=O)cc1 | -0.256 |
| CCc1nnc(NC(=O)c2ccc(S(=O)(=O)N3CCc4ccccc4C3)cc2)s1 | -0.158 |
| Cc1nc2ccc(NC(=O)c3cc([N+](=O)[O-])cc([N+](=O)[O-])c3Cl)cc2s1 | -0.928 |
| O=C(O)C1CC(=O)N(c2ccc(F)cc2)C1 (stereo not given) | -0.0935 |
| COCCn1c(SCC(=O)N2CCCc3ccccc32)nnc1-c1ccoc1C | 0.0369 |
| Cc1ccc(-c2nc(N)n(S(C)(=O)=O)n2)cc1 | 0.138 |
| Cc1ccsc1/C=C(\C#N)C(=O)Nc1c(C)n(C)n(-c2ccccc2)c1=O | -0.0704 |
| CCOC(=O)c1cnc2c(-c3cccc(Br)c3)cnn2c1C | -0.475 |
| O=S(=O)(c1cccc(S(=O)(=O)N2CCC(Cc3ccccc3)CC2)c1)N1CCOCC1 | 1.8 |
| Cc1cccc(NC(=O)c2c(C)nc3ccccn23)c1 | 0.272 |
| COc1ccc(C(=O)/C=C/Nc2ccc(S(=O)(=O)Nc3ncccn3)cc2)cc1 | 0.0026 |
